Test results taken from patent publication US20210380699A1 (published 2021).

Legend:
[1] = biological target: T1, Human PD-L1 expressed on cells (human, UniProt Q9NZQ7); assay: cell-based or functional assay
[2] = biological target: T1, Human PD-L1 expressed on cells; assay: cell-based or functional assay; remark: listed apart in the source
[3] = biological target: T1, Human PD-L1 expressed on cells; assay: cell-based or functional assay; remark: listed apart in the source
[4] = biological target: T2, Human PD-L1 His (human PD-L1 ECD with C-terminal His tag) (human, UniProt Q9NZQ7 fragment); assay: SPR 37C, antibody captured, PD-L1 analyte
T2 construct: Biotinylated in ELISA and AlphaScreen assays; also called hPD-L1-his; biotinylated PD-L1 his
Method: (§1) Label-free surface plasmon resonance (SPR) analysis was carried out on the ProteOn XPR36 (BioRad) array SPR machine. An anti-human IgG capture surface was created on a GLC biosensor chip using a combination of anti-human Fc antibodies (Jackson Labs 09-005-008,109-006-008 and 309-006-008) by amine coupling. […] The data was analysed using the 1:1 model inherent to the ProteOn XPR36 analysis software.
(§2) Label-free surface plasmon resonance (SPR) analysis was performed as per Example 4, except the assay was performed at 37° C.

[5] = biological target: T3, Cyno PD-L1 FLAG (cynomolgus PD-L1 ECD with FLAG tag) (cynomolgus monkey); assay: SPR 37C, antibody captured, PD-L1 analyte
T3 construct: also called cynomolgus monkey PD-L1-FLAG
Method: as §1, §2

[6] = biological target: T2, Human PD-L1 His (human PD-L1 ECD with …); assay: ELISA, biotin-PD-L1 to plate-bound PD-1, antibody titrated
Method: Excess protein was removed by washing with PBS-Tween (0.1% v/v) and the wells were blocked with 1% w/v bovine serum albumin (BSA, Sigma) in PBS for 1 hour at room temperature, after which plates were washed as described previously. […] The plate was incubated for 30 minutes before transferring 50 μL to the coated plates. The coated plates were incubated for 1 hour at room temperature. Excess protein was removed by washing with PBS-Tween (0.1% v/v). PD-L1 binding was detected using streptavidin labelled Europium (Perkin Elmer) diluted 1/1000 in DELFIA assay buffer (Perkin Elmer). Plates were washed with TBS (Tris buffered saline)-Tween (0.1% v/v) and 50 μL/well of DELFIA Enhancement solution (Perkin Elmer) was added to the plate. Time-resolved fluorescence was measured at 615 nm on an Envision plate reader (PerkinElmer).

PD-L2-Fc (R&D Systems) = biological target: T4, PD-L2-Fc (R&D Systems) (UniProt Q9BQ51 20-219, limits assumed); assay: DELFIA plate assay, biotinylated antibody on plate-bound PD-L2-Fc
T4 construct: not shown: Fc of the bought protein
T4 sequence (looked up): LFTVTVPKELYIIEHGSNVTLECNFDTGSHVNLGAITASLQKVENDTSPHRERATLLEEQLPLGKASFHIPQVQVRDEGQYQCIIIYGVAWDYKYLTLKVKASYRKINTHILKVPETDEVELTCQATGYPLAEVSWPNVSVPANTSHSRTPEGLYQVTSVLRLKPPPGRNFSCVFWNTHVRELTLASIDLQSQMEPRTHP
Method: Excess protein was removed by washing with PBS-Tween (0.1% v/v) and the wells were blocked with 250 μL/well Pierce Protein Free Blocking Buffer (Thermo, 37572) for 1 hour, after which plates were washed as described previously. […] 100 μL each antibody dilution was added to the plates in duplicate and incubated for 1 hour at room temperature, before washing as stated above. Antibody binding was detected using streptavidin labelled Europium (Perkin Elmer) diluted 1/1000 in DELFIA Assay buffer (Perkin Elmer). Plates were washed with TBS (Tris buffered saline)-Tween (0.1% v/v) and 50 μL/well of DELFIA Enhancement solution (Perkin Elmer) was added to the plate. Time-resolved fluorescence was measured at 615 nm on an Envision plate reader (PerkinElmer).

[7] = biological target: T1, Human PD-L1 expressed on cells; assay: flow cytometry on CHO hPD-L1 cells, competitor biotin-CD80-Fc
Method: (§3) Plates were centrifuged at 300×g for 3 minutes to supernatant aspirated. […] Cells were washed with 150 μL of PBS and centrifuged at 300 g for 3 minutes. Supernatant was aspirated and 150 μL PBS added. This wash step was repeated.

[8] = biological target: T1, Human PD-L1 expressed on cells; assay: flow cytometry on CHO hPD-L1 cells, competitor biotin-PD-1-Fc
Method: as §3

[9] = biological target: T1, Human PD-L1 expressed on cells; assay: flow cytometry on CHO hPD-L1 cells, competitor biotin-CD80-Fc, n = 1
Method: (§4) 150 μL FACS buffer is added and cells washed as described above. […] Cells are incubated at 4° C. for 60 minutes. Cells are washed twice with 150 μL FACS buffer, centrifuging at 300 g for 3 minutes after each wash step and aspirating supernatant. Cells are fixed, washed and resuspended for analysis as above. APC signal intensity (geometric mean) is measured by flow cytometry using a Beckman Coulter CYTOFLEX instrument. Data is plotted as percentage of receptor binding.
All other steps are performed as per plate 2.

[10] = biological target: T1, Human PD-L1 expressed on cells; assay: flow cytometry on CHO hPD-L1 cells, competitor biotin-PD-1-Fc, n = 1
Method: as §4

[11] = biological target: T1, Human PD-L1 expressed on cells; assay: flow cytometry on CHO hPD-L1 cells, competitor biotin-PD-1-Fc, n = 2
Method: as §4

T1 sequence (Q9NZQ7 19-290 limits assumed): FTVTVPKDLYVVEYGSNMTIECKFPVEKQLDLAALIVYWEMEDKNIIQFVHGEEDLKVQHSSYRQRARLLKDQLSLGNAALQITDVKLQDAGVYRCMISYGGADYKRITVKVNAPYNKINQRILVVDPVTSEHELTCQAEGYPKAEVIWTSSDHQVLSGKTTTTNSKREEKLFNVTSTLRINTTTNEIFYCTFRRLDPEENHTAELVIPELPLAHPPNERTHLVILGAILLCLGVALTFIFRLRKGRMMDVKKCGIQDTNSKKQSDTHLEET

- mean EC50, IFNγ induction, monocyte-T cell co-culture [1]: 0.21 nM
- EC50, IL-2 induction, murine T cell hybridoma assay, n = 1 [2]: 0.33 nM
- EC50, IL-2 induction, murine T cell hybridoma assay, n = 2 [2]: 0.21 nM
- EC50, IL-2 induction, murine T cell hybridoma assay, n = 3 [2]: 0.21 nM
- EC50, ADCC reporter assay, n = 1 [3]: 0.0241 nM
- EC50, ADCC reporter assay, n = 2 [3]: 0.0215 nM
- EC50, ADCC reporter assay, n = 3 [3]: 0.0347 nM
- Kd [4]: 0.42 nM
- Kd [5]: 0.43 nM
- IC50 [6]: 5.21 nM
- IC50 [7]: 1.18 nM
- IC50 [8]: 2.21 nM
- IC50 [9]: 1.15 nM
- IC50 [10]: 1.27 nM
- IC50 [11]: 1.46 nM
B1: 1D05 (human IgG1) (antibody)
heavy: EVQLVESGGGLVQPGRSLRLSCAASGFTFDDYAMHWVRQVPGKGLEWVSGISWIRTGIGYADSVKGRFTIFRDNAKNSLYLQMNSLRAEDTALYYCAKDMKGSGTYGGWFDTWGQGTLVTVSS[human IgG1 constant region omitted]
light: [about 100 residues omitted][about 100 residues omitted]
notes: also called clone 1D05; lead antibody
- binding result (PD-L2-Fc (R&D Systems)): no binding (tested: 10 µg/mL top concentration)
